From PMC6919601, “Identification of Plasmodium dipeptidyl aminopeptidase allosteric inhibitors by high throughput screening” (PLoS ONE, 2019)
In all, about 110,000 compounds went through this assay and about 230 (0.21%) showed an effect of 50% or more. Some of the results follow.

Target: DPAP1 (Plasmodium falciparum, UniProt Q8IIJ9)
Test: primary screen, percent inhibition; read by cleavage of a fluorogenic dipeptide substrate; higher = more effect of the substance
Design: species or system P. falciparum D10 trophozoite lysates; single well
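Also: 30 min substrate incubation versus DMSO and 10 µM JCP410 controls.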

DPAP1, sequence (Q8IIJ9 whole entry, looked up): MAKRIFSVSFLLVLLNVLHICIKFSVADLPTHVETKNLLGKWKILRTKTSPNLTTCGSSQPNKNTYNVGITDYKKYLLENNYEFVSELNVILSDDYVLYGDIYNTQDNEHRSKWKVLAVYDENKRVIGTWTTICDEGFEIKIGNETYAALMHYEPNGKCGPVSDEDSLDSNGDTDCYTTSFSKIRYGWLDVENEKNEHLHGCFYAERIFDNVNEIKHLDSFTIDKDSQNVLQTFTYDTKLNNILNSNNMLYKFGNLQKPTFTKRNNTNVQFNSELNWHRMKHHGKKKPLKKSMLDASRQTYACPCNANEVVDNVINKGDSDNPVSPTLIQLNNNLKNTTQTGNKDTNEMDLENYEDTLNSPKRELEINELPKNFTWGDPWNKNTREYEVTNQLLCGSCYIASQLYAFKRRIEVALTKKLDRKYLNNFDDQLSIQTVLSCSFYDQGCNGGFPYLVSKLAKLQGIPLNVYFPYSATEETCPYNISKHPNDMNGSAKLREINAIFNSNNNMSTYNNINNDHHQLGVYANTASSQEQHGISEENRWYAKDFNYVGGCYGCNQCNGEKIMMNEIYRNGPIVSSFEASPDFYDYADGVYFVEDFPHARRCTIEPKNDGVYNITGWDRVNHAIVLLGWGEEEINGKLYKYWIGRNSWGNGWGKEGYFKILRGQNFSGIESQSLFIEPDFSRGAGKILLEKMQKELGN

In order of falling “% Inhibition @ 10 uM” value:
1. N#CC1=C2SCN(C3CCCC3)CN2C(=O)CC1c1ccc(Cl)cc1 (centres unmarked)  55.3%
2. Sc1nc2ccccc2n1CCOc1ccccc1  13.5%
3. Cc1ccc(NC(=O)CN2C(=O)c3ccccc3C2=O)c(C)c1  9.02%
4. Cc1ccccc1CSc1nc2c(sc3ccccc32)c(=O)n1CCO  8.13%
5. Cc1cc(NC(=O)c2sc3nc4c(cc3c2N)CCCCCC4)no1  8.05%
6. CCS(=O)CCSc1nc(-c2cccs2)cc(-c2ccccc2)c1C#N (centres unmarked)  7.76%
7. Cc1ccc(-n2nnnc2SCC(=O)Nc2nccs2)cc1Cl  6.22%
8. Nc1ccc(-c2nc3ccccc3s2)cc1  6.09%
9. O=C(CS(=O)(=O)c1nc[nH]n1)NCCc1ccccc1  5.9%
10. O=CN1CCN(Cc2ccc(Cl)cc2)CC1  5.8%
11. Cc1ccc(S(=O)(=O)NCCC(=O)N2CCN(Cc3ccccc3)CC2)cc1  5.23%
12. COc1ccc(C(=O)Nc2nc3nc(-c4ccccc4)cc(O)n3n2)cc1OC  5.2%
13. CC(=O)c1cc(F)c(N2CCN(C(=O)c3ccc(F)c(F)c3)CC2)cc1C  4.83%
14. Cc1cccc(C(=O)Nc2c(C(=O)N3CCCCCC3)cnn2-c2ccccc2)c1  4.12%
15. Cc1cc(C)n(C2=NNC(N3CCOCC3)C=C2)n1 (centres unmarked)  4.04%
16. COc1ccc(-c2nsc3c(N4CCNCC4)ncnc23)cc1  4%
17. O=C(O)CCCNC(=O)/C(=C/c1ccc2c(c1)OCO2)NC(=O)c1ccccc1Cl  3.95%
18. c1ccc(CSc2nnc(-c3ccccc3)o2)cc1  3.47%
19. Fc1ccccc1N1CCN(Cc2ccc(Cl)c(Cl)c2)CC1  3.1%
20. N#Cc1c(-c2cccs2)cc(-c2ccccc2)nc1SCC(N)=O  3.05%
21. CC(NC(=O)CN1C(=O)CSc2ncccc21)c1ccccc1 (centres unmarked)  2.65%
22. Cc1nc2nc(Cc3ccccc3)nn2c(C)c1Cl  2.62%
23. Cc1cc(C)c2c(n1)sc1c(=O)n(Cc3ccco3)nnc12  2.54%
24. COc1ccc(Br)cc1C(=O)Nc1ccccc1N1CCCC1  2.4%
25. CCC1(O)CC(C)S(=O)(=O)C2CCCCC21 (centres unmarked)  2.38%
26. CC1CCC2(CC1)N=C(c1cccc(F)c1)C(=O)N2 (centres unmarked)  2.35%
27. COc1ccc(S(=O)(=O)N2CCC(NC(=O)NC(C)c3ccncc3)CC2)cc1 (centres unmarked)  2.29%
28. Cc1ccsc1CN(C(=O)COc1ccc(Cl)cc1Cl)C1CCS(=O)(=O)C1 (centres unmarked)  2.19%
29. COCCCNC(=O)/C(C#N)=C/c1c(Oc2ccc(OC)cc2)nc2c(C)cccn2c1=O  2%
30. CCOc1ccc2nc(N3CCC(C(=O)NC4CCCC(C)C4C)CC3)sc2c1 (centres unmarked)  1.8%
31. COc1ccc(Cn2c(=O)c3ccccc3n3c(-c4cc(Br)cs4)nnc23)cc1  1.68%
32. CN1CCCN(CC2CCCCC2)CC1  1.38%
33. Cc1cccc(Oc2ccc(NC(=O)C3CC=CCC3C(=O)O)cc2)c1 (centres unmarked)  1.03%
34. O=C1NC(=S)S/C1=C/c1ccc([N+](=O)[O-])o1  0.878%
35. CC(NC(=O)CCCc1nnc2n(C)c(=O)c3sccc3n12)c1ccccc1 (centres unmarked)  0.868%
36. O=C(NCC1CCCO1)c1cc(-c2ccncc2)nc2ccc(S(=O)(=O)N3CCOCC3)cc12 (centres unmarked)  0.718%
37. CCN1C(=O)C2(C(C#N)=C(N)Oc3[nH]nc(-c4ccc(F)cc4)c32)c2ccccc21 (centres unmarked)  0.658%
38. COC(=O)C1=C(C)OC(N)=C(C#N)C1c1cc(Br)c(O)c(Br)c1 (centres unmarked)  0.4%
39. CCOc1ccc2nc(NC3=NCN(Cc4ccco4)CN3)nc(C)c2c1  0.0539%
40. O=C(Nc1cc(Cl)ccc1Cl)c1cccc(Br)c1  -0.197%
41. COc1ccc(OC)c(C2=NOC(C(=O)N3CCOCC3)C2)c1 (centres unmarked)  -0.431%
42. Cc1ccc(CNC(=O)CCNS(=O)(=O)c2ccc3nc(O)ccc3c2)o1  -0.544%
43. C#CCOC(=O)/C(=C/c1ccco1)NC(=O)c1ccccc1  -1.06%
44. COc1ccc(C2C3=C(O)CC(C)(C)CC3=NC(C)=C2C(=O)Nc2ccc(C)cn2)c(OC)c1 (centres unmarked)  -1.1%
45. COc1cccc(NC(=O)c2ccc(Cl)cc2)c1  -1.25%
46. CC(C)N(Cc1ccccc1)C(=O)c1cc(S(=O)(=O)N2CCOCC2)cn1C  -1.26%
47. CCOc1ccc(-n2nc3ccc(NC(=O)c4ccccc4F)cc3n2)cc1  -1.28%
48. CCCc1cc(O)n2nc(NC(=O)c3ccc(C)cc3)nc2n1  -1.31%
49. COc1ccc2nc3oc(C(=O)NCc4ccc(C)cc4)cc3cc2c1  -1.54%
50. COc1ccc(CCn2c(SCc3ccccc3C)nc3nccnc3c2=O)cc1OC  -2.48%
51. CSc1ccc2c(c1)C(N1CCN(CCCO)CC1)Cc1ccc(O)cc1S2 (centres unmarked)  -2.56%
52. CCCCCC(=O)N1CCN(CC/N=C/C2=C(O)CC(c3ccco3)CC2=O)CC1 (centres unmarked)  -3.14%
53. O=C(OC(c1ccco1)c1nccc2ccccc12)c1ccccc1 (centres unmarked)  -3.33%
54. CCCN1CCC(N2CCC(O)(c3ccc(Br)cc3)CC2)CC1  -3.6%
55. COc1cccc(C(=O)Nc2c3c(nn2-c2ccc(Cl)cc2)CS(=O)(=O)C3)c1OC  -3.67%
56. COc1ccc(CC(=O)N2N=C3CCC(C)CC3C2(O)C(F)(F)F)cc1 (centres unmarked)  -4.59%
57. CCO/C(O)=C/C1=NC(C)(C)Cc2cc(C)c(C)cc21  -4.91%
58. COC(=O)c1sccc1-n1cccc1  -5.32%
59. Cc1c[n+](C)c(C)cc1-c1ccccc1  -5.79%
60. Cc1cc(OCC(=O)N2CCN(Cc3ccccc3)CC2)cc(C)c1Br  -5.81%
61. CCN(CC)S(=O)(=O)N1CCC(C(=O)NCCC2=CCCCC2)CC1  -5.92%
62. CCN1C(=O)c2cccc3c(NS(=O)(=O)c4ccccc4[N+](=O)[O-])ccc1c23  -6.68%
63. N#CCNC(=O)[C@H](CS(=O)(=O)Cc1cc(C(F)(F)F)cc(C(F)(F)F)c1)NC(=O)c1ccccc1  -6.98%
64. CCOc1ccc(NC(=O)CN(c2ccccc2C)S(C)(=O)=O)cc1  -9.2%
65. Cc1noc(/C=C/N(C)C)c1S(=O)(=O)N1CCC(C(=O)NC2CCCCCC2)CC1  -10.4%
